Measurements taken from ChEMBL document CHEMBL4888484, “Replenishing the malaria drug discovery pipeline: Screening and hit evaluation of the MMV Hit Generation Library 1 (HGL1) against asexual blood stage Plasmodium falciparum ,using a nano luciferase reporter read-out” (2022).
Screen size: about 150,000 compounds; about 540 (0.36%) showed an effect of 50% or more. The list shows a part of the results.

System: Plasmodium falciparum
Assay: Primary screen in NF54 nanoGlo assay, in single point, at 2uM, 72h; a lower Z score goes with more inhibition
Format: functional, Erythrocyte
Conditions: timepoint 72 hour

COCc1cc(NCCCn2nc(C)cc2C)n2nccc2n1 was tested. Which “% Inhibition” value did it give?
Its value is -3%.

And the Z score?
The Z score was 0.51.

Which results are given for Cc1ccccc1C1c2[nH]c3ccccc3c2C[C@H]2C(=O)N(c3ccccc3C(=O)NCc3ccc(Cl)cc3)C(=O)N12 (some centres undefined)?
% Inhibition: -17%; Z score: 2.52

For CCCCS(=O)(=O)N(C)CCN1CCCC1, which “% Inhibition” value is on record?
The value was 9%.

And the Z score?
The Z score was -0.95.

Which “% Inhibition” value does the source give for COc1ccc(C)cc1-n1c(Cc2c[nH]c3ccccc23)n[nH]c1=O here?
Its value is -14%.

What about the Z score of the same molecule?
Its Z score is 2.2.

Which “% Inhibition” value does the source give for COCCn1c(N)c(N(Cc2ccccc2)C(=O)COc2ccccc2F)c(=O)[nH]c1=O here?
The value was -13%.

What about the Z score of the same molecule?
Its Z score is 1.3.

How did the “% Inhibition” value turn out when C=C(C)COc1cccc(CNC[C@H](C)Oc2cccnc2)c1 was run?
The value was -2%.

What about the Z score of the same molecule?
Its Z score is 0.37.

Which “% Inhibition” value does the source give for Cc1ccc(-c2ccn(CC(=O)Nc3ccnn3C)n2)s1 here?
The value was -12%.

And the Z score?
The Z score was 1.68.

Which results are given for CC1CCC(N(C(=O)C2CCC(C(N)=O)CC2)C2CC2)CC1 (centres undefined)?
% Inhibition: -8%; Z score: 0.69

How did the “% Inhibition” value turn out when COCCN(Cc1c(-c2ccccc2)nn(-c2ccc(F)cc2)c1N(C)C)C(=O)c1cccs1 was run?
The value was -11%.

What about the Z score of the same molecule?
The Z score was 1.04.

What does the source list for CCOC(=O)N1CCc2c(sc(NC(=O)CN3C(=O)CCC3=O)c2C(N)=O)C1?
% Inhibition: -4%; Z score: 0.74

NS(=O)(=O)c1ccc(CCNC(=O)[C@@H]2CCCN2S(=O)(=O)c2ccccc2F)cc1 was tested. Which “% Inhibition” value did it give?
Its value is -13%.

What about the Z score of the same molecule?
Its Z score is 1.71.

With CC1CN(C(=O)CCNC(=O)CCOc2ccccc2Cl)CC(C)O1 (centres undefined) as the molecule, how does the “% Inhibition” value read?
The value was -21%.

And the Z score?
Its Z score is 2.43.

How did the “% Inhibition” value turn out when O=C(Cn1cc(-c2ccccc2)c2ncn(C3CC3)c(=O)c21)NCc1ccc(F)cc1 was run?
The value was -2%.

And the Z score?
The Z score was 0.31.

For Cc1cc(F)c2nc(O)cc(C(=O)Nc3ncc(C)[nH]3)c2c1, which “% Inhibition” value is on record?
Its value is -11%.

And the Z score?
Its Z score is 1.19.

Which “% Inhibition” value does the source give for Cc1ccc(F)c(NS(=O)(=O)c2cc(-c3ccn[nH]3)oc2C)c1 here?
The value was 2%.

And the Z score?
Its Z score is -0.25.

What does the source list for CC(=O)N1CCC[C@H](C(=O)OCC(=O)N2CCCCCC2)C1?
% Inhibition: -2%; Z score: 0.25

Which “% Inhibition” value does the source give for CCCNC(=O)N1CCc2[nH]c(-c3ccccc3)nc2C1 here?
The value was -17%.

And the Z score?
The Z score was 2.56.

With O=C(c1cc(F)cc(F)c1)N1CC[C@H]2[C@H](CCC(=O)N2CCCO)C1 as the molecule, how does the “% Inhibition” value read?
The value was -15%.

And the Z score?
The Z score was 1.67.

With CCC(CC)(CN)NS(=O)(=O)c1ccccc1Br as the molecule, how does the “% Inhibition” value read?
Its value is 24%.

And the Z score?
Its Z score is -2.74.

CCN(CC)c1ccc(NC(=O)COc2ccc(Cl)cc2)cn1 was tested. Which “% Inhibition” value did it give?
Its value is 13%.

What about the Z score of the same molecule?
The Z score was -1.49.

For CCCN[C@@H](C)C(=O)N1CCC(N2CCc3cc(F)ccc32)CC1, which “% Inhibition” value is on record?
The value was -14%.

What about the Z score of the same molecule?
Its Z score is 1.26.

For c1c(OCC2CCN(C[C@H]3CCCCO3)CC2)nnc2c1CCCC2, which “% Inhibition” value is on record?
The value was -16%.

And the Z score?
Its Z score is 1.81.

For Cc1nc[nH]c1CN[C@H]1CC(C)(C)Cc2nc(C(C)(C)C)ncc21, which “% Inhibition” value is on record?
The value was -5%.

What about the Z score of the same molecule?
The Z score was 0.71.

How did the “% Inhibition” value turn out when COc1cccc2sc(N(C)CC(=O)NCC(F)(F)F)nc12 was run?
Its value is -4%.

What about the Z score of the same molecule?
The Z score was 0.84.

CCNC(=O)N1CCC[C@@H]1CS(=O)(=O)c1ccccc1 was tested. Which “% Inhibition” value did it give?
The value was -6%.

And the Z score?
Its Z score is 1.1.

CS(=O)(=O)CC1(CC(=O)Nc2n[nH]c3cccc(F)c23)CC1 was tested. Which “% Inhibition” value did it give?
Its value is -9%.

And the Z score?
The Z score was 1.54.

What does the source list for O=c1ccc(-c2ccc(CN3CCCCC3)cc2)c[nH]1?
% Inhibition: -5%; Z score: 0.95

For CC(C)c1cc(CN(C)C(=O)CNC(=O)N(C)C)no1, which “% Inhibition” value is on record?
Its value is -2%.

What about the Z score of the same molecule?
Its Z score is 0.27.

What does the source list for CC(C)Nc1ccccc1C(=O)N(C)[C@H](c1ccccn1)C1CC1?
% Inhibition: -3%; Z score: 0.59

What does the source list for Cn1cccc1C(=O)NCc1nc(C2CCC(F)(F)CC2)no1?
% Inhibition: -10%; Z score: 1.34

COc1ccc(-c2cnnn2-c2ccc(N3C(=O)c4ccccc4C3=O)cc2)cc1OC was tested. Which “% Inhibition” value did it give?
Its value is -1%.

What about the Z score of the same molecule?
The Z score was 0.13.

Which “% Inhibition” value does the source give for COCCN(CC1CCN(Cc2ccccc2F)CC1)C(=O)CCc1ccccc1C here?
The value was -12%.

What about the Z score of the same molecule?
Its Z score is 1.88.

Which “% Inhibition” value does the source give for COc1ccc(-c2cn(-c3ccc(C)c(C)c3)c(NC(=O)CN(C[C@H]3CCCO3)C(=O)c3cccc(OC)c3)n2)cc1 here?
Its value is -9%.

And the Z score?
Its Z score is 1.14.

With Cc1cc(S(C)(=O)=O)cc(C(=O)N2CCC3(CCC3)CC2)c1C as the molecule, how does the “% Inhibition” value read?
Its value is 24%.

What about the Z score of the same molecule?
The Z score was -2.74.

With Cc1cc(C)cc(CCC(=O)N2CC[C@@](C(=O)O)(C(F)(F)F)C2)c1 as the molecule, how does the “% Inhibition” value read?
The value was -8%.

And the Z score?
The Z score was 1.13.

How did the “% Inhibition” value turn out when COc1cc2c(cc1OC)[C@H](c1ccccc1Cl)N(C(=O)COCc1ccccc1)CC2 was run?
Its value is 9%.

What about the Z score of the same molecule?
The Z score was -1.79.

What does the source list for COc1nccc(NC(=O)N2CC(C)(C#N)C2)n1?
% Inhibition: -2%; Z score: 0.2

Which “% Inhibition” value does the source give for CCN(CC#N)C(=O)[C@@H]1CCCC[C@H]1C(=O)N(CC)CC#N here?
The value was 4%.

What about the Z score of the same molecule?
Its Z score is -0.65.

With FC(F)(F)c1cccnc1N1CCC([C@H]2CCNC2)CC1 as the molecule, how does the “% Inhibition” value read?
The value was 7%.

And the Z score?
Its Z score is -1.42.

With CC(C)O[C@H]1CN(C(=O)c2cncc(Cl)c2)C[C@@H]1O as the molecule, how does the “% Inhibition” value read?
Its value is -13%.

What about the Z score of the same molecule?
Its Z score is 2.47.

Cc1nnc(-c2ccc(-n3cnnc3)cc2)[nH]1 was tested. Which “% Inhibition” value did it give?
Its value is -5%.

And the Z score?
The Z score was 1.08.

What does the source list for O=c1ccn(-c2ccccc2)nc1-c1nc(-c2ccc3c(c2)OCO3)no1?
% Inhibition: 0%; Z score: -0.06
